The source of these data is paper PMC4336329 (PLoS ONE, 2015).

In all, about 310,000 compounds went through this assay and about 2,200 (0.71%) showed an effect of 50% or more. Effects have a minus sign here. The list shows a part of the results.

The target in the test is human ether-à-go-go-related gene (hERG) potassium channel (human, UniProt Q12809). The test can be described thus: primary screen, population patch clamp on CHO cells stably expressing hERG.
human ether-à-go-go-related gene (hERG) potassium channel, sequence (Q12809 whole entry, looked up): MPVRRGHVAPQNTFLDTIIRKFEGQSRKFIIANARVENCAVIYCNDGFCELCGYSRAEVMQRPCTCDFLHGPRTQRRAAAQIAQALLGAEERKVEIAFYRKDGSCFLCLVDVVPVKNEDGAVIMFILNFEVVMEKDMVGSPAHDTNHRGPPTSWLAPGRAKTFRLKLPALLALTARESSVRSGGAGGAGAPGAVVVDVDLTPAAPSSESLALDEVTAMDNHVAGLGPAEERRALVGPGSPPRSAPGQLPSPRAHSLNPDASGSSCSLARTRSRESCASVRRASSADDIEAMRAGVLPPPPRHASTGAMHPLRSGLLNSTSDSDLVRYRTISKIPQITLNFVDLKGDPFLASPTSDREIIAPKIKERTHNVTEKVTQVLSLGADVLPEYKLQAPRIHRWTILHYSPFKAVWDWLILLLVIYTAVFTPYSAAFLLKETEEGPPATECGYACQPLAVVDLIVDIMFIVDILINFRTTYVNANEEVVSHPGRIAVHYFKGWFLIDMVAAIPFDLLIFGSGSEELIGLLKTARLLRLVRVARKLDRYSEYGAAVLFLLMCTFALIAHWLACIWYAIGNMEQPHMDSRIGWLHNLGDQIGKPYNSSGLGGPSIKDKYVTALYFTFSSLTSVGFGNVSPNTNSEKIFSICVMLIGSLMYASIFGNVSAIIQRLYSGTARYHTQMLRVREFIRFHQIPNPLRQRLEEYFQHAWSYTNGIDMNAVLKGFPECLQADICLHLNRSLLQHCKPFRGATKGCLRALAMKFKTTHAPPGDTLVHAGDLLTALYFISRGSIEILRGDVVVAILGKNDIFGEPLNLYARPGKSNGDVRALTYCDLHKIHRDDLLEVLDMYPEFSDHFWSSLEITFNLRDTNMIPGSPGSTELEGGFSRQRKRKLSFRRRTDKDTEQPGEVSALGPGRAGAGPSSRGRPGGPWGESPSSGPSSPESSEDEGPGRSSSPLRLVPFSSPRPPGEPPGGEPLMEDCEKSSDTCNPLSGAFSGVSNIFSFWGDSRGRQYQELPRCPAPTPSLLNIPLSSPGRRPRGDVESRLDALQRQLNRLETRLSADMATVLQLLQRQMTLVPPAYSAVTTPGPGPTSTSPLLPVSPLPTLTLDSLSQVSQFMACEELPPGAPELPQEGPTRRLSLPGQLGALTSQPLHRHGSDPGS
On to `CC(C)(C)CC(C)(C)NCC(O)COc1c(F)cc(Br)cc1F.Cl` (centres unmarked), for which the “hERG current change (%, negative = inhibition) at 1uM” value was -10%.
The value for `OCCC1CN(Cc2cnc(-c3cccc4ccccc34)nc2)CCN1C1CCCCC1` (centres unmarked) was 8.03%; that for `CN(C1CCCCC1)S(=O)(=O)c1ccc(SCC(=O)NC(C)(C)C)nc1` was 17.1%.
For the compound `CC(=O)N(C)c1ccc(N=Cc2cc3c(cc2[N+](=O)[O-])OCO3)cc1`, the “hERG current change (%, negative = inhibition) at 1uM” value is recorded as 19.5%.
The value for `Cc1nn(-c2nc3ccccc3[nH]2)c(N)c1-c1ccccc1` was 7.57%; that for `CCOc1ccc(NC(=S)N2CCN(CCN3C(=O)c4cccc5cccc(c45)C3=O)CC2)cc1` was 8.64%.
The value for `CCOC(=O)C(=Cc1ccc(OCc2ccc([N+](=O)[O-])cc2)c(OC)c1)C(=O)OCC` was 15.7%.
For `Cc1nc2c(Cl)cccc2[nH]1` the value was 3.38%; for `COc1ccc2oc(=O)cc(-c3cc4cccc(OC)c4o3)c2c1`, 13.2%; for `CN(C)c1ncccc1-c1nc2ccccc2s1`, 8.21%.
As for `O=C(O)c1ccc(Nc2nc3ccc(Cl)cc3[nH]2)cc1`, the “hERG current change (%, negative = inhibition) at 1uM” value came to 16.4%.
For `CCC(NC(=O)OC(C)(C)C)C(=O)Oc1ccc2c3c(c(=O)oc2c1)CCC3` (centres unmarked) the value was 10.8%.
The value for `CCOC(=O)C1CCCN(c2c(NCC3CCCN3CC)c(=O)c2=O)C1` (centres unmarked) was 16.7%; that for `O=C(NNC(=O)c1ccc(Cl)cc1Cl)c1ccncc1` was 11.3%; that for `COc1ccc(N(C)S(=O)(=O)c2cccc(C(=O)Nc3ccc(N4CCOCC4)cc3)c2)cc1` was 3.27%.
For `CN(Cc1ccccc1)C(NC(=O)c1ccccc1)C(Cl)(Cl)Cl` (centres unmarked) the value was 3.67%.
For `CCOC(=O)c1ccc(-c2ccc3c(=O)c4ccccc4n(C)c3c2)cc1F`, the “hERG current change (%, negative = inhibition) at 1uM” value turned out to be 14.2%.
For `CSc1ccc(-c2nnn(Cc3ccccn3)n2)cc1` the value was 3.61%; for `O=C(CSCCO)Nc1cccc([N+](=O)[O-])c1`, 10%; for `Cc1cc(C(=O)Nc2ccccc2C(=O)O)ccc1NC(=O)COc1cccc([N+](=O)[O-])c1`, 14.4%.
For `Cn1c(=O)c2c(nc(SCc3ccccc3F)n2C)n(C)c1=O` the value was 7.45%; for `O=C(CNC(=O)c1ccco1)NCC(=O)OCc1ccccc1Cl`, 4.73%; for `COc1cc(NC(=S)NC2CC(C)(C)NC(C)(C)C2)c(OC)cc1Cl`, 13.2%.
The value for `O=C(NCCCc1ccncc1)C1CCC(=O)N(CCc2cccc(F)c2)C1` (centres unmarked) was -3.6%.
Take `CN(CC(=O)Nc1ccc(C#N)cc1)Cc1ccc(Cl)cc1Cl`: the “hERG current change (%, negative = inhibition) at 1uM” value is listed as -29.1%.
For `CC(C)C1=CC(=NS(=O)(=O)c2cccc([N+](=O)[O-])c2)C=C(C(C)C)C1=O` the value was 12.7%; for `O=C(NC1CCN(Cc2ccccc2)CC1)c1ccccc1OCc1ccccc1Cl`, 7.01%.
Take `COc1ccc(NS(=O)(=O)c2ccc3c(c2)CCC(=O)N3)c(OC)c1`: the “hERG current change (%, negative = inhibition) at 1uM” value is on record as 4.2%.
The value for `COCCNC(=S)N/N=C/c1ccc(N2CCOCC2)cc1` was 9.23%; that for `CCN(CC)S(=O)(=O)c1cc(C(=O)Nc2cc(C)[nH]n2)ccc1Cl` was 4.18%.
The value for `O=C(N/N=C/c1cccc([N+](=O)[O-])c1)c1cc(-c2ccccc2)nc2ccccc12` was 6.94%.
For `COc1ccc(S(=O)(=O)Cc2ccc(C(=O)N3CCC(C(N)=O)CC3)o2)cc1` the value was 20.7%; for `CCN(C(=O)c1ccnc(C(C)(C)C)c1)c1ccccc1`, 1.64%; for `CCOC(=O)N/N=C(C)/C=C/c1ccccc1`, 12.4%.
For the compound `O=C(CSCc1ccco1)Nc1cc(C(F)(F)F)ccc1N1CCOCC1`, the “hERG current change (%, negative = inhibition) at 1uM” value is 16.6%.
On to `Cc1cc(=O)nc2c3ccccc3n(CC(=O)NCCCN3CCOCC3)n12`, for which the “hERG current change (%, negative = inhibition) at 1uM” value worked out at 12%.
The value for `C/C(Cn1nnc([N+](=O)[O-])n1)=N\NC(=O)c1ccccc1Cl` was 13.5%.
For `Cc1c(CCO)c(=O)oc2n[nH]c(-c3ccccc3)c12.Cl` the value was 6.37%; for `CCOC(=O)C1CCN(Cc2cccc(OCc3ccccc3)c2)CC1.O=C(O)C(=O)O`, -8.38%.
For the compound `CCc1nnc(NC(=O)C2CCCN2C(=O)Nc2ccc(C)cc2)s1` (centres unmarked), the “hERG current change (%, negative = inhibition) at 1uM” value amounted to 8.89%.
The value for `CCOc1ccc(C(=O)OCC(=O)Nc2cccc(S(=O)(=O)N3CCCC3)c2)cc1` was 5.6%; that for `Cc1cc(C)nc(NC(=NCCc2c[nH]c3ccccc23)NC(=O)c2ccco2)n1` was 7.86%; that for `O=C(O)CCS(=O)(=O)c1nc(-c2cccs2)cc(C(F)(F)F)n1` was -3.88%.
The value for `CCOC(=O)c1c(NC(=O)Cc2cccs2)sc(C(=O)NC2CCCCC2)c1C` was 14.3%.
